Results reported in PubChem BioAssay AID445 (National Center for Advancing Translational Sciences (NCATS), 2006).
The whole screen tested about 110,000 compounds, of which about 40 (0.04%) were called active. The inconclusive results got no clear call from the source; some entries with a clear call stand among them for comparison. Calls come from the whole dose curve; as a rule, active = well fitted curve in the direction sought with a large enough effect in the signal ratio (not every such curve was filed as active); inconclusive = small, poorly fitted or top-dose-only effect, or a change in a side signal; inactive = flat fitted curve, though single readings scatter; the % refers to the signal ratio. A potency beside an inconclusive call is a rough fit, not a confirmed value.

Test: IkB Signaling;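 for IkBa stabilization activation: 0% = basal untreated cells and 100% = reference inhibitor full response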
Details: ABC-DLBCL IkBa-CBG/CBR dual luciferase ratio (green luciferase fused to IkBa over red control in OCI-Ly3 lymphoma cells), 4 h; IkBa stabilization activation: at 57.1 µM (top of the series), scaled: untreated 0%, proteasome inhibitor 100% unless noted
Method in brief: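 Luminescence ratio of IκBα-fused green versus native red beetle luciferase in OCI-Ly3 cells, 4 h post-doxycycline with compound; red signal alone, scaled from basal (0%) to zero light (-100%), flagged nonspecific or cytotoxic effects.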
Potency is the fitted concentration of half-maximal effect.

Row | SMILES | IkBa stabilization activation | Potency
1 | CCCCOc1cccc(C(=O)Nc2cc(NC(=O)c3ccco3)ccc2OC)c1 | inconclusive: -0.936% [signal inhibitor] | –
2 | CC(c1ccccc1)n1cc2c(c1-c1ccccc1Br)c(=O)n(C)c(=O)n2C (centres undefined) | inconclusive: 3.33% [signal inhibitor] | –
3 | Cc1ccc(CNC(=O)c2c(O)nc3cc(C)ccn3c2=O)cc1 | inconclusive: 1.39% [signal inhibitor] | –
4 | COc1cccc(NC(=O)CCc2c(C)nc3nc(CNC(=O)c4cccc(F)c4)nn3c2C)c1 | inconclusive: 5.26% [signal inhibitor] | –
5 | Cc1oc2ccc(O)c(CN3CCCC3)c2c1C(=O)Nc1ccc(C(C)C)cc1 | inconclusive: -1.12% [signal inhibitor] | –
6 | CCCn1c(CNc2ccc(Br)cc2)nc2ccccc21 | inconclusive: -4.9% [signal inhibitor] | –
7 | C#CCOc1ccc(-c2nnc(Nc3ccc(NC(C)=O)cc3)c3ccccc23)cc1 | inconclusive: 9.99% [signal inhibitor] | –
8 | Cc1cc(N2CCN(C(=O)c3ccco3)CC2)n2nc(C)c(-c3ccccc3)c2n1 | inactive: 0.991% | –
9 | CN1C(=O)c2cccc3c(S(=O)(=O)NCc4ccco4)ccc1c23 | – | inconclusive: 12.6 µM [rising, partial curve]
10 | O=C(Nc1ccc(Cc2ccc(NC(=O)C3CC3)c(O)c2)cc1O)C1CC1 | inconclusive: -0.689% [signal inhibitor] | –
11 | CC(C)COc1ccc(C(=O)N2CCCCC2CCN2CCCCC2)cc1 (centres undefined) | inconclusive: 2.14% [signal inhibitor] | –
12 | COc1ccc(CCNC(=O)c2cnn(-c3cccc(C)c3)c2C2CCN(C(=O)OC(C)(C)C)CC2)cc1OC | inconclusive: 0.79% [signal inhibitor] | –
13 | Oc1ccc(Nc2nc(NCC3CCCO3)c3ccccc3n2)cc1 (centres undefined) | inactive: 1.08% | –
14 | Cc1cccc(-c2nnn3c2nc(NCc2ccc4c(c2)OCO4)c2ccccc23)c1 | inconclusive: 6.3% [signal inhibitor] | –
15 | O=C(Oc1ccccc1)N1CCC2(CCCN(c3ccccn3)C2)CC1 | inactive: 0.973% [at 11.4 µM, scaled: untreated 0%, proteasome inhibitor 100%] | –
16 | COc1ccccc1C1C(C(=O)c2sc(C)nc2C)=C(O)C(=O)N1CCN1CCOCC1 (centres undefined) | inconclusive: 17.2% [signal inhibitor] | –
17 | CCSC1=NC(=O)/C(=C2/C=Cc3ccccc3N2CC)S1 | inactive: -1.32% | –
18 | Cc1ccc(-c2nnn(CC(=O)N(Cc3cccs3)C(C(=O)NC(C)(C)C)c3ccco3)n2)o1 (centres undefined) | inactive: 3% | –
19 | COC(=O)c1c(NC(=O)c2nc3ccccc3s2)sc2c1CCN(C(C)=O)C2 | – | inconclusive: 25.1 µM [signal inhibitor, partial curve]
20 | CCOC(=O)C1CCCN(C(=O)Cn2ncc3c(C)n(Cc4ccccc4Cl)c(C)c3c2=O)C1 (centres undefined) | inconclusive: 0.602% [signal inhibitor] | –
21 | CCCc1nc2ccccc2n1CC(O)COc1ccc(C(=O)OC)cc1 (centres undefined) | inconclusive: 10% [signal inhibitor] | –
22 | COc1cc(OC)c(-c2nn3c(-c4ccco4)nnc3s2)cc1OC | inactive: -1.43% | –

Row | SMILES | IkBa stabilization activation | Potency
23 | CCC1CCCCN1S(=O)(=O)c1ccc(C(=O)Nc2sc3c(c2C(N)=O)CCC3)cc1 (centres undefined) | inconclusive: 2.3% [signal inhibitor] | –
24 | CC(C)(C)OC(=O)N1CCC(c2c(C(=O)N3CCN(c4ccccn4)CC3)cnn2-c2ccccc2)CC1 | inconclusive: 3.27% [signal inhibitor] | –
25 | O=S(=O)(O)c1ccc(NN(c2c(O)ccc3ccccc23)S(=O)(=O)O)cc1 | inactive: -1.2% [at 11.4 µM, scaled: untreated 0%, proteasome inhibitor 100%] | –
26 | Cc1ccc(OCC(=O)NCC2(N(C)C)CCCCC2)cc1C | inconclusive: 2.76% [signal inhibitor] | –
27 | COc1ccc2nc(N3CCCCC3)c(C#N)cc2c1 | inactive: -3.02% | –
28 | COc1ccccc1N1CCN(CC(=O)Nc2ccc(C)c(F)c2)CC1 | inconclusive: 4.66% [signal inhibitor] | –
29 | CCCCCCNc1cc2n(c(=O)n1)CCc1cc(OC)c(OC)cc1-2 | inactive: -4.27% | –
30 | CCCOc1ccc(C(=O)NCC2OCCc3ccccc32)cc1 (centres undefined) | inconclusive: 4.09% [signal inhibitor] | –
31 | Cc1ccc(CNc2oc(-c3ccc(COc4ccc(C)cc4)o3)nc2C#N)cc1 | inconclusive: -0.0762% [signal inhibitor] | –
32 | Cc1ccc(NC(=O)c2c(C)nc3sc(C(=O)Nc4ccc(F)cc4)c(N)c3c2-c2ccc(C)o2)c(C)c1 | – | inconclusive: 3.16 µM [signal inhibitor]
33 | Cc1ccc2c(c1)-c1c(cnn1CC(=O)N1CCN(c3ccccc3F)CC1)CO2 | inconclusive: 1.16% [signal inhibitor] | –
34 | COCCCNC(=O)c1cnc2sc(N3CCCCCC3)nn2c1=O | inactive: -1.48% | –
35 | Cc1oc2ncn(CC(C)C)c(=O)c2c1C(=O)NCCc1ccccc1 | inconclusive: -0.715% [signal inhibitor] | –
36 | Cc1ccc(-c2nc(CNC(=O)Nc3ccccc3)c(C)o2)cc1 | inconclusive: 2.09% [signal inhibitor] | –
37 | c1ccc(Cn2c(SCc3nc4ccccc4s3)nnc2-c2ccco2)cc1 | inconclusive: 9.59% [signal inhibitor] | –
38 | CCN(CC)C(=O)CSc1nc2ccsc2c(=O)n1Cc1ccccc1Cl | inconclusive: -0.406% [signal inhibitor] | –
39 | CCS(=O)(=O)n1nc(NCc2cccc(OC)c2)nc1NCc1cccc(OC)c1 | inconclusive: 2.42% [signal inhibitor] | –
40 | Cc1cc(C)n2c(Nc3ccc(C(C)C)cc3)c(-c3ccsc3)nc2n1 | inconclusive: 6.57% [signal inhibitor] | –
41 | O=C(CSc1ncnc2c1oc1ccccc12)OCc1ccccc1 | inactive: -5.22% | –
42 | O=C(O)C1CCC(CNc2c(NC3CCCCC3)c(=O)c2=O)CC1 (centres undefined) | inactive: 2.6% | –
43 | CCOC(=O)C1=C(C)NC(=O)NC1c1ccc(C)o1 (centres undefined) | inactive: -0.899% | –
44 | COCCNC(=O)Cn1c(=O)n(CCCCCC(=O)NCc2ccccc2Cl)c(=O)c2sccc21 | inconclusive: -0.398% [signal inhibitor] | –
